Results from the supplement of paper PMC10369915.
The list shows a part of the results. Rule as the data show it: active = 3.2 or more and inactive = the rest. Only a few entries rise above the background.

biological target: SHP2 C-SH2 domain E139D; experiment: enrichment score (SH2-bound / input frequency) (ratio); bacterial display of known human phosphotyrosine sites (pTyr-Var adds point mutants) read by sequencing; higher = stronger binding; tyrosines were phosphorylated by kinases first; settings: peptide library: pTyr-Var
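Also: displayed peptides selected on beads carrying the immobilized SH2 domain, with library peptides lacking any tyrosine serving as negative controls.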

Binder	enrichment score
CLAQRYLIWEC [SCN5A_Y694_R689C]	active: 3.25
LLINKYGLSDH [SCP2_Y151_A155D]	inactive: 1.38
CQKRKYIEIDS [SDAD1_Y580_S575C]	inactive: 0.804
FMMMRYSQNIR [SDAD1_Y656_V660I]	inactive: 2.15
KHTLSFVDVGT [SDHA_Y629_Y629F]	inactive: 0.961
TVSRPYSFIEF [SEC22B_Y110]	inactive: 2.51
NMRSTYAKLAA [SEC22B_Y193_H190R]	inactive: 1.06
VVHGSYDEIEG [SEC24A_Y263_S261G]	inactive: 0.374
NDTAGYFIIGG [SEL1L3_Y399]	inactive: 0.832
KKRSSYGNSSD [SELENOK_Y52_R50S]	inactive: 0.311
AADGRYEVLFL [SEMA3F_Y478]	inactive: 0.636
ELTSVYDSRAR [SENP1_Y349]	inactive: 0.567
ELTSVYGSRAR [SENP1_Y349_D350G]	inactive: 0.647
LGSNGYKKLLK [SEPSECS_Y334]	inactive: 0.432
LGSNGCKKLLK [SEPSECS_Y334_Y334C]	inactive: 0.65
TVNIRYLLFPS [SERAC1_Y548_S543T]	active: 3.94
KQINDYVEKGT [SERPINA1_Y184]	inactive: 0.747
KEINDYVEKGT [SERPINA1_Y184_Q180E]	inactive: 0.763
PNATLYKMTSI [SERPINA7_Y40_S43T]	inactive: 0.565

biological target: SHP2 C-SH2 domain wild-type; experiment: as above; settings: peptide library: pTyr-Var

Binder	enrichment score
CLAQRYLIWEC [SCN5A_Y694_R689C]	inactive: 3.01
LLINKYGLSDH [SCP2_Y151_A155D]	inactive: 1.1
CQKRKYIEIDS [SDAD1_Y580_S575C]	inactive: 0.631
FMMMRYSQNIR [SDAD1_Y656_V660I]	inactive: 1.7
KHTLSFVDVGT [SDHA_Y629_Y629F]	inactive: 0.732
TVSRPYSFIEF [SEC22B_Y110]	active: 5.27
NMRSTYAKLAA [SEC22B_Y193_H190R]	inactive: 2.56
VVHGSYDEIEG [SEC24A_Y263_S261G]	inactive: 0.517
NDTAGYFIIGG [SEL1L3_Y399]	inactive: 0.801
KKRSSYGNSSD [SELENOK_Y52_R50S]	inactive: 0.288
AADGRYEVLFL [SEMA3F_Y478]	inactive: 0.727
ELTSVYDSRAR [SENP1_Y349]	inactive: 0.569
ELTSVYGSRAR [SENP1_Y349_D350G]	inactive: 0.708
LGSNGYKKLLK [SEPSECS_Y334]	inactive: 0.371
LGSNGCKKLLK [SEPSECS_Y334_Y334C]	inactive: 0.968
TVNIRYLLFPS [SERAC1_Y548_S543T]	inactive: 3
KQINDYVEKGT [SERPINA1_Y184]	inactive: 0.556
KEINDYVEKGT [SERPINA1_Y184_Q180E]	inactive: 0.765
PNATLYKMTSI [SERPINA7_Y40_S43T]	inactive: 0.651

biological target: SHP2 N-SH2 domain L43F; experiment: as above; settings: peptide library: pTyr-Var

Binder	enrichment score
CLAQRYLIWEC [SCN5A_Y694_R689C]	active: 3.49
LLINKYGLSDH [SCP2_Y151_A155D]	inactive: 1.05
CQKRKYIEIDS [SDAD1_Y580_S575C]	inactive: 1.02
FMMMRYSQNIR [SDAD1_Y656_V660I]	inactive: 2.03
KHTLSFVDVGT [SDHA_Y629_Y629F]	inactive: 0.734
TVSRPYSFIEF [SEC22B_Y110]	active: 4.82
NMRSTYAKLAA [SEC22B_Y193_H190R]	inactive: 0.641
VVHGSYDEIEG [SEC24A_Y263_S261G]	inactive: 0.415
NDTAGYFIIGG [SEL1L3_Y399]	inactive: 0.848
KKRSSYGNSSD [SELENOK_Y52_R50S]	inactive: 0.302
AADGRYEVLFL [SEMA3F_Y478]	inactive: 0.745
ELTSVYDSRAR [SENP1_Y349]	inactive: 0.55
ELTSVYGSRAR [SENP1_Y349_D350G]	inactive: 0.759
LGSNGYKKLLK [SEPSECS_Y334]	inactive: 0.477
LGSNGCKKLLK [SEPSECS_Y334_Y334C]	inactive: 0.762
TVNIRYLLFPS [SERAC1_Y548_S543T]	active: 3.42
KQINDYVEKGT [SERPINA1_Y184]	inactive: 0.7
KEINDYVEKGT [SERPINA1_Y184_Q180E]	inactive: 0.681
PNATLYKMTSI [SERPINA7_Y40_S43T]	inactive: 0.713

biological target: SHP2 N-SH2 domain T42A; experiment: as above; settings: peptide library: pTyr-Var

Binder	enrichment score
CLAQRYLIWEC [SCN5A_Y694_R689C]	inactive: 3.06
LLINKYGLSDH [SCP2_Y151_A155D]	inactive: 1.53
CQKRKYIEIDS [SDAD1_Y580_S575C]	inactive: 1.78
FMMMRYSQNIR [SDAD1_Y656_V660I]	inactive: 1.89
KHTLSFVDVGT [SDHA_Y629_Y629F]	inactive: 0.582
TVSRPYSFIEF [SEC22B_Y110]	active: 9.55
NMRSTYAKLAA [SEC22B_Y193_H190R]	inactive: 2.01
VVHGSYDEIEG [SEC24A_Y263_S261G]	inactive: 0.766
NDTAGYFIIGG [SEL1L3_Y399]	inactive: 1.02
KKRSSYGNSSD [SELENOK_Y52_R50S]	inactive: 0.289
AADGRYEVLFL [SEMA3F_Y478]	inactive: 0.882
ELTSVYDSRAR [SENP1_Y349]	inactive: 0.567
ELTSVYGSRAR [SENP1_Y349_D350G]	inactive: 0.781
LGSNGYKKLLK [SEPSECS_Y334]	inactive: 0.463
LGSNGCKKLLK [SEPSECS_Y334_Y334C]	inactive: 0.644
TVNIRYLLFPS [SERAC1_Y548_S543T]	inactive: 2.94
KQINDYVEKGT [SERPINA1_Y184]	inactive: 0.624
KEINDYVEKGT [SERPINA1_Y184_Q180E]	inactive: 0.665
PNATLYKMTSI [SERPINA7_Y40_S43T]	inactive: 0.695

biological target: SHP2 N-SH2 domain T52S; experiment: as above; settings: peptide library: pTyr-Var

Binder	enrichment score
CLAQRYLIWEC [SCN5A_Y694_R689C]	inactive: 2.68
LLINKYGLSDH [SCP2_Y151_A155D]	inactive: 1.11
CQKRKYIEIDS [SDAD1_Y580_S575C]	inactive: 1.06
FMMMRYSQNIR [SDAD1_Y656_V660I]	inactive: 1.97
KHTLSFVDVGT [SDHA_Y629_Y629F]	inactive: 0.885
TVSRPYSFIEF [SEC22B_Y110]	active: 4.92
NMRSTYAKLAA [SEC22B_Y193_H190R]	inactive: 0.647
VVHGSYDEIEG [SEC24A_Y263_S261G]	inactive: 0.557
NDTAGYFIIGG [SEL1L3_Y399]	inactive: 0.994
KKRSSYGNSSD [SELENOK_Y52_R50S]	inactive: 0.283
AADGRYEVLFL [SEMA3F_Y478]	inactive: 0.423
ELTSVYDSRAR [SENP1_Y349]	inactive: 0.449
ELTSVYGSRAR [SENP1_Y349_D350G]	inactive: 0.651
LGSNGYKKLLK [SEPSECS_Y334]	inactive: 0.459
LGSNGCKKLLK [SEPSECS_Y334_Y334C]	inactive: 0.615
TVNIRYLLFPS [SERAC1_Y548_S543T]	active: 3.39
KQINDYVEKGT [SERPINA1_Y184]	inactive: 0.938
KEINDYVEKGT [SERPINA1_Y184_Q180E]	inactive: 0.779
PNATLYKMTSI [SERPINA7_Y40_S43T]	inactive: 0.569

biological target: SHP2 N-SH2 domain wild-type; experiment: as above; settings: peptide library: pTyr-Var

Binder	enrichment score
CLAQRYLIWEC [SCN5A_Y694_R689C]	active: 3.83
LLINKYGLSDH [SCP2_Y151_A155D]	inactive: 1.19
CQKRKYIEIDS [SDAD1_Y580_S575C]	inactive: 0.722
FMMMRYSQNIR [SDAD1_Y656_V660I]	inactive: 1.78
KHTLSFVDVGT [SDHA_Y629_Y629F]	inactive: 1.04
TVSRPYSFIEF [SEC22B_Y110]	inactive: 1.05
NMRSTYAKLAA [SEC22B_Y193_H190R]	inactive: 0.78
VVHGSYDEIEG [SEC24A_Y263_S261G]	inactive: 0.485
NDTAGYFIIGG [SEL1L3_Y399]	inactive: 1.03
KKRSSYGNSSD [SELENOK_Y52_R50S]	inactive: 0.358
AADGRYEVLFL [SEMA3F_Y478]	inactive: 0.844
ELTSVYDSRAR [SENP1_Y349]	inactive: 0.527
ELTSVYGSRAR [SENP1_Y349_D350G]	inactive: 0.676
LGSNGYKKLLK [SEPSECS_Y334]	inactive: 0.548
LGSNGCKKLLK [SEPSECS_Y334_Y334C]	inactive: 0.859
TVNIRYLLFPS [SERAC1_Y548_S543T]	inactive: 2.95
KQINDYVEKGT [SERPINA1_Y184]	inactive: 0.853
KEINDYVEKGT [SERPINA1_Y184_Q180E]	inactive: 0.789
PNATLYKMTSI [SERPINA7_Y40_S43T]	inactive: 0.729
